Data: the RNAGym collection of RNA variant scans (doi:10.1093/nar/gkz1192)
The source gives no read counts; variants with many changes may rest on few reads.

B1: CPEB3 Ribozyme (parent)
chain: UAACAGGGGGCCACAGCAGAAGCGUUCACGUCGCAGCCCCUGUCAGAUUCUGGUGAAUCUGCGAAUUCUGCUGUAUAUCUC

Variants of: B1
Test: self-cleavage, relative activity (ratio to wild type); higher = more cleavage; in vitro, sequencing
In short: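 CPEB3 self-cleaving ribozyme mutant libraries were made by rounds of error-prone PCR, barcoded, and transcribed in vitro with T7 RNA polymerase for 5 hours at 37°C. Cleavage occurred during transcription and a 15 min DNase I step before EDTA stop. RNAs were reverse transcribed with template switching and Illumina-sequenced, with DNA sequencing mapping barcodes to variants. Relative activity is the variant's cleaved/total read fraction divided by wild type's (minimum 5 reads), averaged across three batches.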

Variant | self-cleavage
UAACAGGGGGCCACAGCAGAAGCGUUCACGCCGCAGCCCCUGUCAGAUUCUGGCGAAUCUGCGAAUUCUGCUGUACAUCUC | 1.25
UAACAGGGGGCCACAGCAGAAGCGUUCACGCCGCAGCCCCUGUCAGAUUCUGGCGAAUCUGCGAAUUCUGCUGUAUAUCCC | 1.04
UAACAGGGGGCCACAGCAGAAGCGUUCACGCCGCAGCCCCUGUCAGAUUCUGGUGAAACUGCGAGUUCUGCAGUAUAUCCC | 0.26
UAACAGGGGGCCACAGCAGAAGCGUUCACGCCGCAGCCCCUGUCAGAUUCUGGUGAAACUGCGAAUUCUGCUGCAUAUCUC | 0.37
UAACAGGGGGCCACAGCAGAAGCGUUCACGCCGCAGCCCCUGUCAGAUUCUGGUGAAUCAGCGGAUUCUGCUGCAUAUCUC | 0.33
UAACAGGGGGCCACAGCAGAAGCGUUCACGCCGCAGCCCCUGUCAGAUUCUGGUGAAUCCGCGAUUUCUGCUGUAUAUCUC | 0.12
UAACAGGGGGCCACAGCAGAAGCGUUCACGCCGCAGCCCCUGUCAGAUUCUGGUGAAUCCGCGAAUUCUGCUAUAUAUCUC | 0.6
UAACAGGGGGCCACAGCAGAAGCGUUCACGCCGCAGCCCCUGUCAGAUUCUGGUGAAUCCGCGAAUUCUGCCGUAUAUCUC | 0.27
UAACAGGGGGCCACAGCAGAAGCGUUCACGCCGCAGCCCCUGUCAGAUUCUGGUGAAUCCGCGAAUUCUGCUGCAUAUCUC | 0.72
UAACAGGGGGCCACAGCAGAAGCGUUCACGCCGCAGCCCCUGUCAGAUUCUGGUGAAUCCGCGAAUUCUGCUGUAUAUCCC | 0.38
UAACAGGGGGCCACAGCAGAAGCGUUCACGCCGCAGCCCCUGUCAGAUUCUGGUGAAUCGGCGAAUUCUGCUGUAAAUCUC | 0.36
UAACAGGGGGCCACAGCAGAAGCGUUCACGCCGCAGCCCCUGUCAGAUUCUGGUGAAUCUGCGAAGUCAGCUGUAUAUCUC | 0.38
UAACAGGGGGCCACAGCAGAAGCGUUCACGCCGCAGCCCCUGUCAGAUUCUGGUGAAUCUGCGAAUACCGCUGUAUAUCUC | 0.15
UAACAGGGGGCCACAGCAGAAGCGUUCACGCCGCAGCCCCUGUCAGAUUCUGGUGAAUCUGCGAAUGCUGCUGUGUAUCUC | 0.14
UAACAGGGGGCCACAGCAGAAGCGUUCACGCCGCAGCCCCUGUCAGAUUCUGGUGAAUCUGCGAAUUCAGCAGUAUAUCUC | 0.4
UAACAGGGGGCCACAGCAGAAGCGUUCACGCCGCAGCCCCUGUCAGAUUCUGGUGAAUCUGCGAAUUCGGCAGUAUAUCUC | 0.31
UAACAGGGGGCCACAGCAGAAGCGUUCACGCCGCAGCCCCUGUCAGAUUCUGGUGAAUCUGCGAAUUCUGCCGUCUAUCUC | 1.11

Variant | self-cleavage
UAACAGGGGGCCACAGCAGAAGCGUUCACGCCGCAGCCCCUGUCAGAUUCUGGUGAAUCUGCGAAUUCUGCCGUAUUUCUC | 1.2
UAACAGGGGGCCACAGCAGAAGCGUUCACGCCGCAGCCCCUGUCAGAUUCUGGUGAAUCUGCGAAUUCUGCCGUAUAUUUC | 0.38
UAACAGGGGGCCACAGCAGAAGCGUUCACGCCGCAGCCCCUGUCAGAUUCUGGUGAAUCUGCGAAUUCUGCUGAAUACCUC | 1.23
UAACAGGGGGCCACAGCAGAAGCGUUCACGCCGCAGCCCCUGUCAGAUUCUGGUGAAUCUGCGAAUUCUGCUGUAUACCAC | 1.04
UAACAGGGGGCCACAGCAGAAGCGUUCACGGCGCGGCCCCUGUCGGAUUCUGGUGAAUCUGCGAAUUCUGCUGUAUAUCUC | 1.21
UAACAGGGGGCCACAGCAGAAGCGUUCACGGCGCUGCCCCUGUCAGAUUCUGGUGUAUCUGCGAAUUCCGCGGUAUAUCAC | 0.09
UAACAGGGGGCCACAGCAGAAGCGUUCACGGCGCAGCCCCUGUCCGAUUCUGGUGGAUCUGCGGAUUCUGCUGUAUAUCUC | 0.23
UAACAGGGGGCCACAGCAGAAGCGUUCACGGCGCAGCCCCUGUCAGGCUCUGGUGAAUCUGCGAAUUCUGCUGUAUAUCUC | 0.42
UAACAGGGGGCCACAGCAGAAGCGUUCACGGCGCAGCCCCUGUCAGAUUCUGGUGAGUCUGCGAAUUCUGCUGUAUAACUC | 0.45
UAACAGGGGGCCACAGCAGAAGCGUUCACGGCGCAGCCCCUGUCAGAUUCUGGUGAUUCUGCGAAACCUGCUGUAUAUCUC | 0.09
UAACAGGGGGCCACAGCAGAAGCGUUCACGGCGCAGCCCCUGUCAGAUUCUGGUGAAUCUGCGUAUUCUGCUGUGUAUCUC | 0.16
UAACAGGGGGCCACAGCAGAAGCGUUCACGGCGCAGCCCCUGUCAGAUUCUGGUGAAUCUGCGAGUUCUGCUGUAUACCUC | 0.13
UAACAGGGGGCCACAGCAGAAGCGUUCACGGGGCAGCCCCUGUCAGAUUCUGGCGAAUCUGCGAACUCUGCUGUAUAUCUC | 0.14
UAACAGGGGGCCACAGCAGAAGCGUUCACGGUGCAGCCCCUGUCAGACUCUGGUGUAUCUGCGAAUUCUGCUGUAUAUCCC | 0.08
UAACAGGGGGCCACAGCAGAAGCGUUCACGGCGCAGCUUCUGUCAGAUUCUGGUGAAUCUGCGAAUUCUGCUGUAUACCUC | 0.13
UAACAGGGGGCCACAGCAGAAGCGUUCACGGCGCAGCCCCUGUCAGAUUCUGGUGAAUCUGUGAAUUCUGCUGUAUAACUC | 0.09
UAACAGGGGGCCACAGCAGAAGCGUUCACGGCACAGCCCCUGUCAGGUUCUGGUGAAUCUGCGGAUUCUGCUGUAUACCUC | 0.17
